Laboratory results reported in PMC13083723 (Patterns, 2026).
In all, about 5,400 compounds went through this assay and about 190 (3.5%) showed an effect of 50% or more. This is one part of the list.

system: Vero-E6; assay: primary screen, phospholipidosis by LipidTOX staining; higher = more effect of the substance; settings: 10 µM
Method in brief: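 Drug-induced phospholipidosis detected with HCS LipidTOX Red reagent in Vero-E6 cells. Compounds tested at 10 μM, with amiodarone (10 μM) as positive control and DMSO (0.1 v/v %) as vehicle.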

SMILES	result_ITMP [%]
CN1CCN(C(=O)CN[C@@H]2C[C@H]2c2ccc(OCc3ccccc3)cc2)CC1	87.7
CC1(C)S[C@@H]2[C@H](/N=C/N3CCCCCC3)C(=O)N2[C@H]1C(=O)O	2.81
CCCOc1ccc2nc(NC(=O)OC)[nH]c2c1	-2.44
CCCC[C@H](C)C[C@H](O)/C=C/[C@H]1[C@H](O)CC(=O)[C@@H]1CCCC/C=C/C(=O)O	-0.28
CNCCc1c[nH]cn1	-7.65
CCCCOc1ccc(OCCCN2CCOCC2)cc1	2.18
Nc1cccc(-c2cc3c(Oc4cccc(O)c4)ncnc3[nH]2)c1	0.14
CC(C)[C@H]1CC[C@H](C(=O)N[C@H](Cc2ccccc2)C(=O)O)CC1	-9.88
CC(=O)Oc1cccc(C(=O)O)c1OC(C)=O	-9.93
COc1c(O)cc2c(c1O)[C@@H]1O[C@H](CO)[C@@H](O)[C@H](O)[C@H]1OC2=O	-0.33
COc1ccc(CCCOC(Cn2ccnc2)c2ccc(OC)cc2)cc1 (stereo not shown)	21.7
CC(C)N[C@H]1CCn2c(=O)[nH]c3cccc(c32)[C@@H]1O	-1.61
COc1ccc(-n2nc(C(N)=O)c3c2C(=O)N(c2ccc(N4CCCCC4=O)cc2)CC3)cc1	-4.73
COc1ccc(C(C)=O)c(O)c1	-7.47
CC(C)c1nc(CN(C)C(=O)N[C@H](C(=O)N[C@@H](Cc2ccccc2)C[C@H](O)[C@H](Cc2ccccc2)NC(=O)OCc2cncs2)C(C)C)cs1	1.57
COc1cc2c(cc1OC)-c1cc3nc4ccccc4nc3n1C(C)(C)C2	-1.86
CCC(CC)[C@H](NC(C)=O)[C@@H]1[C@H](O)[C@@H](C(=O)O)C[C@H]1NC(=N)N	-2.33
COc1ccccc1OCCNCC(O)COc1cccc2[nH]c3ccccc3c12 (stereo not shown)	43.5
NC(=O)c1[nH]cnc1O	-0.78
O=C(O)CNC(=O)C1C(=O)N(C2CCCCC2)C(=O)N(C2CCCCC2)C1=O	0.57
Nc1nccc(Oc2ccc(NC(=O)c3cn(COP(=O)(O)O)cc(-c4ccc(F)cc4)c3=O)cc2F)c1Cl	-1.79
Cc1c(CN(C)C(=O)/C=C/C2=CNC3=NC(=O)CCC3=C2)oc2ccccc12	-2.49
CO/N=C(\C(=O)N[C@@H]1C(=O)N2C(C(=O)[O-])=CCS[C@H]12)c1csc(N)n1	-1.89
O=C(Nc1cccc(Cl)c1)Nc1ncc(CCNc2ncnc3ccsc23)s1	-6.59
COc1ccc2[nH]c(S(=O)Cc3ncc(C)c(OC)c3C)nc2n1 (stereo not shown)	-3.31
